The results in this text go back to publication PMC6355801, “The compound TB47 is highly bactericidal against Mycobacterium ulcerans in a Buruli ulcer mouse model” (Nature Communications, 2019).

The subject of this assay is autoluminescent M. ulcerans 1059. As to conditions: for mice relapsed: 24 weeks after treatment completion, 5 mice per group. The procedure: All animal procedures were conducted according to relevant national and international guidelines. All animal care and experimental protocols were approved by the Committee on Laboratory Animal Ethics of Guangzhou Institutes of Biomedicine and Health (GIBH), Chinese Academy of Sciences, #2017077. Serial, non-invasive, real-time monitoring of drug activity in a murine model of Buruli ulcer was used. […] The inoculum volume was 0.05 mL, containing approximately 5 to 6 log10CFU. The right hind footpads served as negative controls for observation of swelling. The lesion index was defined as follows: index 0 = normal footpad; index 1 = noninflammatory footpad swelling; index 2 = inflammatory footpad swelling; index 3 = inflammatory hind foot swelling. […] Subcutaneous route for streptomycin and oral gavage for others were used.
The MBD is defined as the lowest dose able to reduce the footpad CFU counts by 99% compared to the counts in the controls pretreatment, adopted from references[20],[21]. […] This experiment was carried out more than triplicate by detecting footpad suspension and only footpad tissue from two independent experiments were plated for CFU counts at d0 and d7 for MBD detection.

Where two headings read alike, the source gives them in different places. Bounds are passed on as bounds.

With `COc1ccn2nc(C)c(C(=O)NCc3ccc(N4CCC(c5ccc(OC(F)(F)F)cc5)CC4)cc3)c2c1` [TB47], the mice relapsed (TB47 25 mg kg^-1 daily for 5 days, one questionable) is reported as 3 mice. The “time-to-relapse compared with the standard regimen for 5 weeks” value (TB47 25 mg kg^−1 for 1 week, P < 0.01) was “significantly extended”. For the same molecule, the “RLUs from footpads of live mice” value (TB47 25 mg kg^−1 for 5 days) is “reached the background noise levels”. Also, under “TB47 50 mg kg^-1 daily for 5 days”, the mice relapsed is reported as 1 mouse. In addition, for the setting “TB47 50 mg kg^−1, day 7”, the “M. ulcerans burden (CFU per footpad) lower than at day 0” value is ~ 3.9 log10; the “M. ulcerans burden (CFU per footpad) lower than in mice treated with rifampin and streptomycin” value is on record as ~ 2.5 log10. For the same molecule, the cure entry (TB47 alone 25 mg kg^−1 daily, 5 days per week, for 2 weeks) is recorded as “did not produce 100% cure”. The “reduction of M. ulcerans burden in mouse footpads compared to the standard BU treatment regimen” value (TB47 alone (abstract)) was “more than 2.5 log10 CFU”. Where the note is “TB47 alone at 0.8 mg kg^−1, live mouse RLU, P < 0.001”, the “efficacy compared with rifampin 10 + streptomycin 150 mg kg^−1” value is listed as “superior”. For the same molecule, the “bioluminescence in live mice 3 days after treatment completion (day 7)” value (TB47 doses ≥ 12.5 mg kg^−1, P > 0.05) was “indifferent from the background reading”. Besides, for the setting “TB47 ≥ 25 mg kg^−1, relapse monitoring”, the “footpad RLU after completion of treatment” value was “could not be detected at significant levels even up to 14 weeks post completion of treatment”. In addition, the “mice with relapsed M. ulcerans infection (ALI > 1)” value (TB47 ≥ 25 mg kg^−1 for 5 days, at 20 to 24 weeks) was 4 to 6 out of 10 mice. The “average lesion index (ALI)” value (day 7, TB47 0.4 mg kg^−1) is on record as 1.8 ± 1.25. For the same molecule, where the note is “day 7, TB47 doses ≥ 12.5 mg kg^−1”, the “RLUs of footpad tissue” value was “reduced to the background level”. Moreover, where the note is “day 7, TB47 ≥ 3.1 mg kg^−1”, the “average lesion index (ALI)” value is given as 0 and the “reduction in RLU in the footpad tissue” value is > 2 log10. Besides, the “dose exhibiting bactericidal activity” value (lowest among doses evaluated, treated for 5 days) is ≥ 0.4 mg/kg. In addition, the “minimal bactericidal dose (MBD)” value (lowest dose reducing footpad CFU by 99% vs pretreatment, treated 5 days, sacrificed d7) is 1.6 mg/kg.
